We go through 76 variants from a collection of fitness landscapes (doi:10.1016/j.celrep.2020.107928).

Sequences and labels used below:
B1: Caulobacter ParB omega fusion; a variant is named by its letters at X, in order, B8GW30 (parent)
chain: MESVVVGEPGMSEGRRGLGRGLSALLGEVDAAPAQAPGEQLGGSREAPIEILQRNPDQPRRTFREEDLEDLSNSIREKGVLQPILVRPSPDTAGEYQIVAGERAWRAAQRAGLKTVPIMVRELDDLAVLEIGIIENVQRADLNVLEEALSYKVLMEKFERTQENIAQTIGKSXSHVANXMRLLXLPDEVQSYLVSGELTAXHARAIAAAADPVALAKQIIEGGLSVRETEALARKAPNLSAGKSKGGRPPRVKDTDTQALESDLSSVLGLDVSIDHRGSTGTLTITYATLEQLDDLCNRLTRGI

In all, about 81,000 sequences were measured (“one-hybrid fitness for binding parS DNA”: median about -0.17, highest 2% from about 0.51 on). The list shows a part of the results. Bounds are passed on as bounds.

The test covers variants of B1. Description: one-hybrid fitness for binding parS DNA (scaled: cognate 1, non-cognate 0); higher = stronger binding. As to conditions: with parS DNA site. An outline of the steps: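 Pre- and post-selection plasmids were Illumina-sequenced, three replicate libraries were pooled, and any variant with under 10 reads was removed. The libraries were Caulobacter ParB with four specificity codons randomised, selected in E. coli USO through a HIS3 reporter whose site is 19 bp from the promoter. Cells grew 48 hours at 37°C on M9 without histidine, with 0.1 mM IPTG and 5 mM 3-AT. Fitness is the log change in variant-to-wild-type read ratio, rescaled against cognate and non-cognate.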
Take CHPI: the “one-hybrid fitness for binding parS DNA” value was ≤ 0.2.
Regarding IWLD, the “one-hybrid fitness for binding parS DNA” value was ≤ 0.2.
For QHKK the value was ≤ 0.2.
The same measure for QWVR: ≤ 0.2; for KAKV: ≤ 0.2; for SHTR: ≤ 0.2.
Take FLSD: the “one-hybrid fitness for binding parS DNA” value was ≤ 0.2.
Turning to WSSD, the “one-hybrid fitness for binding parS DNA” value is ≤ 0.2.
For ACKG the value was ≤ 0.2; for RAHG, 1.01.
On to RMWI, for which the “one-hybrid fitness for binding parS DNA” value is ≤ 0.2.
For RKNH the value was ≤ 0.2; for APVG, ≤ 0.2; for ESCR, ≤ 0.2.
For TVPR the value was ≤ 0.2.
For PWMS the value was ≤ 0.2; for KVNR, ≤ 0.2.
Take WYPF: the “one-hybrid fitness for binding parS DNA” value was ≤ 0.2.
For FCSW, the “one-hybrid fitness for binding parS DNA” value is ≤ 0.2.
With WCEG, the “one-hybrid fitness for binding parS DNA” value amounted to 0.256.
Take SGSA: the “one-hybrid fitness for binding parS DNA” value is ≤ 0.2.
As to CSFF, the “one-hybrid fitness for binding parS DNA” value was ≤ 0.2.
The same measure for LLLG: ≤ 0.2; for AMLD: ≤ 0.2; for EEHV: ≤ 0.2.
As to VAMR, the “one-hybrid fitness for binding parS DNA” value is ≤ 0.2.
Consider QTMG, for which the “one-hybrid fitness for binding parS DNA” value is ≤ 0.2.
Consider GIYC, for which the “one-hybrid fitness for binding parS DNA” value is ≤ 0.2.
For AFFM, the “one-hybrid fitness for binding parS DNA” value is ≤ 0.2.
With IIAV, the “one-hybrid fitness for binding parS DNA” value is ≤ 0.2.
In the case of SAEW, the “one-hybrid fitness for binding parS DNA” value was ≤ 0.2.
As to PMLR, the “one-hybrid fitness for binding parS DNA” value was ≤ 0.2.
Consider QMNL, for which the “one-hybrid fitness for binding parS DNA” value is ≤ 0.2.
Consider AMLY, for which the “one-hybrid fitness for binding parS DNA” value was ≤ 0.2.
For HPYN the value was ≤ 0.2.
Take KKHM: the “one-hybrid fitness for binding parS DNA” value was ≤ 0.2.
Regarding YVIS, the “one-hybrid fitness for binding parS DNA” value is ≤ 0.2.
For ESQL the value was ≤ 0.2; for VKVM, ≤ 0.2.
EYEL: the “one-hybrid fitness for binding parS DNA” value was ≤ 0.2.
The same measure for IPTR: ≤ 0.2; for KITF: ≤ 0.2.
The same measure for SVLA: ≤ 0.2; for QLFL: ≤ 0.2; for FFTS: ≤ 0.2.
The same measure for SHSL: ≤ 0.2; for KYKH: ≤ 0.2.
Take FSTC: the “one-hybrid fitness for binding parS DNA” value is ≤ 0.2.
The same measure for YEPG: ≤ 0.2; for SAHQ: ≤ 0.2.
For HTHS the value was ≤ 0.2; for EAVI, ≤ 0.2; for RNCH, ≤ 0.2.
For YSKF the value was ≤ 0.2.
On to HRAH, for which the “one-hybrid fitness for binding parS DNA” value is ≤ 0.2.
NYTA: the “one-hybrid fitness for binding parS DNA” value is ≤ 0.2.
In the case of SLMG, the “one-hybrid fitness for binding parS DNA” value was ≤ 0.2.
Turning to TICG, the “one-hybrid fitness for binding parS DNA” value was ≤ 0.2.
The same measure for DVAC: ≤ 0.2; for DRNF: ≤ 0.2; for DWQG: ≤ 0.2.
For RRQS the value was 0.649; for QIMT, ≤ 0.2; for HCRT, ≤ 0.2.
Consider PERS, for which the “one-hybrid fitness for binding parS DNA” value was ≤ 0.2.
Take YNNC: the “one-hybrid fitness for binding parS DNA” value was ≤ 0.2.
The same measure for DTII: ≤ 0.2; for HNFS: ≤ 0.2; for SKQA: ≤ 0.2.
On to IGHS, for which the “one-hybrid fitness for binding parS DNA” value is ≤ 0.2.
The same measure for QCNN: ≤ 0.2.
For WKAK the value was ≤ 0.2; for WTGR, ≤ 0.2; for CYKG, ≤ 0.2.
For NPQT the value was ≤ 0.2; for TRWS, ≤ 0.2.
